# Measured values from the supplement of paper PMC8728848.
# This is one part of the list.
# Tests used:
# Experiment in all cases: glycan array binding signal (z-score within array); higher = stronger binding
# Details in all cases: glycan notation: IUPAC condensed, linker removed
# [1] = molecular target: Gal(b1-4)GlcNAc(b1-3)GalNAc
# Method in brief: (§1)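 Columns mapping to the same glycan were averaged after glycan names were converted to IUPAC-condensed notation. The data come from 3228 arrays in the Consortium for Functional Glycomics database, limited to those with an available protein sequence. Binding is reported as a within-array Z-score averaged across arrays of one protein sequence and across linkers.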
# [2] = molecular target: Gal(b1-4)GlcNAc(b1-3)[Fuc(a1-3)GlcNAc(b1-6)]Gal(b1-4)Glc
# Method in brief: as §1
# [3] = molecular target: Gal(b1-4)GlcNAc(b1-3)[Gal(b1-4)GlcNAc(b1-6)]Gal(b1-4)GlcNAc
# Method in brief: as §1
# [4] = molecular target: Gal(b1-4)GlcNAc(b1-3)[Gal(b1-4)GlcNAc(b1-6)]GalNAc
# Method in brief: as §1
# [5] = molecular target: Gal(b1-4)GlcNAc(b1-3)[GlcNAc(b1-6)]Gal(b1-4)GlcNAc
# Method in brief: as §1
# [6] = molecular target: Gal(b1-4)GlcNAc(b1-6)Gal(b1-4)GlcNAc
# Method in brief: as §1
# [7] = molecular target: Gal(b1-4)GlcNAc(b1-6)Gal(b1-4)GlcNAc(b1-6)GalNAc
# Method in brief: as §1
# [8] = molecular target: Gal(b1-4)GlcNAc(b1-6)GalNAc
# Method in brief: as §1
# [9] = molecular target: Gal(b1-4)GlcNAc(b1-6)[Gal(b1-3)]GalNAc
# Method in brief: as §1
# [10] = molecular target: Gal(b1-4)GlcNAc(b1-6)[Gal(b1-4)GlcNAc(b1-3)]GalNAc
# Method in brief: as §1
# Gal(b1-4)GlcNAc6P = molecular target: Gal(b1-4)GlcNAc6P
# Method in brief: as §1
# Gal(b1-6)Gal = molecular target: Gal(b1-6)Gal
# Method in brief: as §1
# Gal3S(b1-3)GalNAc = molecular target: Gal3S(b1-3)GalNAc
# Method in brief: as §1
# Gal3S(b1-3)GlcNAc = molecular target: Gal3S(b1-3)GlcNAc
# Method in brief: as §1
# [11] = molecular target: Gal3S(b1-3)[Fuc(a1-4)]GlcNAc
# Method in brief: as §1
# Gal3S(b1-4)Glc = molecular target: Gal3S(b1-4)Glc
# Method in brief: as §1
# Gal3S(b1-4)Glc6S = molecular target: Gal3S(b1-4)Glc6S
# Method in brief: as §1
# Gal3S(b1-4)GlcNAc = molecular target: Gal3S(b1-4)GlcNAc
# Method in brief: as §1
# Gal3S(b1-4)GlcNAc6S = molecular target: Gal3S(b1-4)GlcNAc6S
# Method in brief: as §1
# [12] = molecular target: Gal3S(b1-4)[Fuc(a1-3)]Glc6S
# Method in brief: as §1
# [13] = molecular target: Gal3S(b1-4)[Fuc(a1-3)]GlcNAc
# Method in brief: as §1
# [14] = molecular target: Gal3S(b1-4)[Fuc(a1-3)]GlcNAc6S
# Method in brief: as §1
# Gal3S4S(b1-4)GlcNAc = molecular target: Gal3S4S(b1-4)GlcNAc
# Method in brief: as §1
binder,measurement,setting,value
HHA (Hippeastrum hybrid) (protein) MQQDCNLVLYDVDKPIWASNTGGLARDCHLNMQSDGNLVVYAPRNQVIWASNTQGENGNYVCILQKDRNVVIYGTARWATGTNIHGAGIVGVPGSAPQNTTAEMIKLVRKYLITK,glycan array binding signal (z-score),[1],1.05
same,glycan array binding signal (z-score),[2],-0.201
same,glycan array binding signal (z-score),[3],-0.202
same,glycan array binding signal (z-score),[4],-0.247
same,glycan array binding signal (z-score),[5],-0.206
same,glycan array binding signal (z-score),[6],-0.218
same,glycan array binding signal (z-score),[7],-0.191
same,glycan array binding signal (z-score),[8],-0.197
same,glycan array binding signal (z-score),[9],-0.207
same,glycan array binding signal (z-score),[10],-0.202
same,glycan array binding signal (z-score),Gal(b1-4)GlcNAc6P,-0.209
same,glycan array binding signal (z-score),Gal(b1-6)Gal,-0.2
same,glycan array binding signal (z-score),Gal3S(b1-3)GalNAc,0.241
same,glycan array binding signal (z-score),Gal3S(b1-3)GlcNAc,-0.214
same,glycan array binding signal (z-score),[11],-0.207
same,glycan array binding signal (z-score),Gal3S(b1-4)Glc,-0.2
same,glycan array binding signal (z-score),Gal3S(b1-4)Glc6S,-0.2
same,glycan array binding signal (z-score),Gal3S(b1-4)GlcNAc,-0.187
same,glycan array binding signal (z-score),Gal3S(b1-4)GlcNAc6S,0.072
same,glycan array binding signal (z-score),[12],-0.158
same,glycan array binding signal (z-score),[13],-0.208
same,glycan array binding signal (z-score),[14],-0.196
same,glycan array binding signal (z-score),Gal3S4S(b1-4)GlcNAc,-0.205
